Assay results: patent US20250332227A1, “PEROXIDASE BASED BIOCONTROL AGENTS” (ACIES BIO D.O.O., priority 2022, published 2025)

Molecular target: bovine lactoperoxidase LpoPOX, commercial, SEQ ID NO: 16 (Bos taurus, UniProt P80025)

**Q.** Which Vmax (KI 0.03-4 mM, 0.1 mM H2O2, 100 μM thymol blue, phosphate pH 7.2, room temperature, sigmoidal fit) does the source give for `[I-].[K+]` [iodide] here?
**A.** Its Vmax is 0.0025 µmol/min.

**Q.** And the kcat (KI 0.03-4 mM, 0.1 mM H2O2, phosphate pH 7.2, room temperature)?
**A.** The kcat was 16.5 s⁻¹.

**Q.** And the kcat/K0.5 (KI, 0.1 mM H2O2, pH 7.2)?
**A.** The kcat/K0.5 was 12500 M⁻¹ s⁻¹.
